# Data published in PubChem BioAssay (NCI).
# Several values for one entry are separate records, joined by “and”; a condition that tells them apart may be missing. Equal entries are not always repeated.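 Following 48 hours of exposure in 96-well plates, responses at five concentrations were used to interpolate endpoints linearly. At the GI50, growth is halved. TGI: concentration producing complete growth inhibition.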
# Test system: NCI-H322M lung
# Assay: growth of human tumour cells (NCI), 48 h
SMILES,TGI,GI50
FC1(F)[Se]C2C3CCC(C3)C2C1(F)F (stereo not given),> 100 µM,–
Cc1ccc(C)c(N2C(=O)C(=O)C(c3nc4ccccc4s3)/C(=N/N)C2=O)c1 (stereo not given),> 100 µM,–
Cc1c(C)c2ccc3oc4ccccc4c3c2oc1=O,> 100 µM,–
O=c1oc2ccc(I)cc2c(=O)n1-c1ccc(Br)cc1F,7.59 µM,441 nM
O=C1N[C@@H]2[C@@H](O)[C@@H](O)[C@H](O)C[C@H]2c2cc3c(c(O)c21)OCCO3,0.661 µM,126 nM
Cc1cnc2ccc(C)c([N+](=O)[O-])c2c1NCCCN(C)C,> 100 µM,–
O=C(Nc1ccc(C(F)(F)F)cc1)NC(F)(F)F,> 100 µM,–
O=C1NC(=C(Cl)Cl)/C(=N/S(=O)(=O)N2CCCCC2)N1,5.66 µM,2190 nM
O=C(Nc1ccccc1)c1cc(S(=O)(=O)Nc2n[nH]c(=O)n2-c2ccccc2)c(S)cc1Cl,> 100 µM,–
CN1C=c2c3c(ccc2=C2C=CC4C=C5OCOC5=CC4=C21)OCO3 (stereo not given),4.17 µM and 27 µM,1960 nM and 13600 nM
C=C[C@@H](C)[C@]1(C(=O)OC)CCCC12OCCO2,> 100 µM,–
CCCCCCCCCCCCCCCC1=NCC[N+]1(CCO)CCO,18.5 µM,5580 nM
CSc1nc(-c2ccc(Cl)cc2)c(C#N)c(=O)n1C1OC(COC(C)=O)C(OC(C)=O)C(OC(C)=O)C1OC(C)=O (stereo not given),> 100 µM,14000 nM and > 100000 nM
C#CC[C@@H]1C[C@]2(C)[C@H]3CC[C@@H]4[C@H]5C(C(=C)C)CC[C@]5(C(=O)NCCCN5CCN(CCCN)CC5)CC[C@@]4(C)[C@]3(C)CC[C@H]2C(C)(C)[C@H]1OC(C)=O (stereo not given in full),2.99 µM,1620 nM
CN(Cc1ccccc1)Cn1ccnc1,> 100 µM,–
O=c1c2cc(-c3ccccc3)cnc2sn1-c1ccc(Br)cc1,> 100 µM,–
CN[C@H]1CN(c2ccc3c(=O)c(C(=O)O)cn(-c4nccs4)c3n2)C[C@@H]1OC,7.43 µM,2120 nM
O=C(O)c1ccccc1C(=O)NCC1S(=O)(=O)OCCOS1(=O)=O,> 100 µM,–
O=C(O)c1cc(-c2ccc3cc4c(cc3c2)OCO4)nc2ccccc12,> 100 µM,–
CCn1cc2c(=O)n3ncn(-c4ccc(Br)cc4)c3nc2n1,> 100 µM,–
COC(=O)[C@]12CC3C=CC1N(C3)C(CBr)c1c2n(S(=O)(=O)c2ccccc2)c2ccccc12 (stereo not given in full),> 100 µM,–
O=C1/C(=C/c2cccc(Cl)c2)CCCc2ccccc21,35.4 µM,–
COc1ccccc1Nc1cc(O)c2c(=O)cc(-c3ccccc3)oc2c1,27.4 µM,5980 nM
C=CCOC(=O)CC[C@H](NC(=O)[C@@H](CCC(F)(F)F)Cc1ccc(O)cc1)C(=O)OCC=C,> 100 µM,–

SMILES,TGI,GI50
COc1ccc2ncn(-c3cc(O[C@H](C)c4ccccc4C(F)(F)F)c(C(N)=O)s3)c2c1,15.4 µM,3870 nM
COC(COC(N)=O)C1=C(N2CC2)C(=O)C(C)=C(N2CC2)C1=O (stereo not given),1.28 µM,–
CC(=O)O[C@@H]1C[C@]2(C(=O)c3ccccc3)C(=O)C(=O)S[C@]12c1ccccc1,> 100 µM,–
Cc1ccc(O)c(C(c2cccc(C(c3cc(C)ccc3O)c3cc(C)ccc3O)c2)c2cc(C)ccc2O)c1,3.1 µM,–
COc1ccc(S(=O)(=O)N2C(=O)CCC2C(=O)NC(N)=O)cc1 (stereo not given),> 100 µM,–
NC1N=C(c2ccc(Cl)cc2)C2=C(N1)c1ccccc1CC2 (stereo not given),> 100 µM,–
CN=C1Nc2ccccc2C(=O)N2CSCC12 (stereo not given),> 100 µM,–
CC(=O)c1nc2ccccc2n1C(C)C(=O)c1ccccc1 (stereo not given),> 100 µM,–
CC(C)[N+]([O-])(CCCNc1c2ccccc2nc2cccc([N+](=O)[O-])c12)C(C)C,1.52 µM,–
CC1OC(OC2C(OC(=O)[C@]34CCC(C)(C)C[C@H]3C3=CC[C@@H]5[C@@]6(C)CC[C@H](OC7OC(C(=O)O)C(O)C(O)C7O)C(C)(C)[C@@H]6CC[C@@]5(C)[C@]3(C)C[C@H]4O)OCC(O)C2O)C(O)C(O)C1OC1OCC(O)C(O)C1O (stereo not given in full),22.3 µM and 14.5 µM,10300 nM and 4190 nM
COC1/C=C(C)/C=C/C(C)/C=C/C(=O)OC(/C(C)=C/C=C(\C)CNC(=O)[C@H](CO)NC=O)C(C)/C=C/C=C/C(OC)CC/C=C(C)/C=C/C1 (stereo not given in full),> 1 µM,–
C=C(c1ccc(OC)c(/C=C/C(=O)c2ccc3c(c2)OCO3)c1)c1cc(OC)c(OC)c(OC)c1,> 100 µM,4730 nM
OC1(C(Sc2cc(C(F)(F)F)cc(C(F)(F)F)c2)Sc2cc(C(F)(F)F)cc(C(F)(F)F)c2)C=CCCC1 (stereo not given),19.6 µM,–
COC(=O)[C@@H]1c2cc3c(c(O)c2[C@@H](OC2OC(C)C(OC)C(C)(OC)C2OC)C[C@]1(C)O)C(=O)c1c(O)cc2c(c1C3=O)O[C@H]1O[C@]2(C)[C@H](O)[C@@H](N(C)C)[C@@H]1O (stereo not given in full),0.449 µM and 0.355 µM,–
COc1ccc(N=c2oc3ccccc3cc2C(N)=O)cc1,> 100 µM,–
Cc1cc2nc(NCCN)n(Cc3ccc(F)c(Cl)c3)c2cc1C,23.5 µM,10800 nM
CC(C)(C)C(=O)OCOP(=O)(NCc1ccccc1)C1CCCN(O)C1=O (stereo not given),20 µM,2550 nM
COc1ccc(Nc2nc3cc(N)cc(N)c3nc2-c2ccccc2)cc1,83.6 µM,23400 nM
COC(=O)c1cc2c(=O)n(C)c3ccccc3n2c1C(=O)OC,> 100 µM,–
O=C(CSCC(=O)N/N=C/c1ccc2c(c1)OCO2)N/N=C/c1ccc2c(c1)OCO2,> 100 µM,–
COc1ccc(C(c2ccccc2)(c2ccc(OC)cc2)N2C(=O)NC3C(CCCCC(=O)NCCCCCCOP(OCCC#N)N(C(C)C)C(C)C)SCC32)cc1 (stereo not given),30.1 µM,–
CCOC(=O)C1(C#N)OC(=O)c2cnccc21 (stereo not given),> 100 µM,–
Cc1ccc2c(c1)SC1=Nc3sc4cc(C)ccc4[n+]3CN12,52 µM,–
CCOCCOCCOCc1nc(C#N)c(N)o1,> 100 µM,–

SMILES,TGI,GI50
CC1=C(C#N)C(=C(C#N)C#N)OC1(C)Cc1ccccc1 (stereo not given),> 100 µM,–
CC1=NN(c2cccc(Cl)c2)C2(SCC(=O)N2c2nc3ccccc3s2)C1=CC=Cc1ccccc1 (stereo not given),> 100 µM,–
COc1ccc(CNc2cnc3cc(N)ccc3n2)cc1,> 100 µM,–
O=C(CSc1nc2c(n1Nc1ccccc1)-c1ccccc1SC2)Nc1nc(-c2ccc(Cl)cc2)cs1,> 100 µM,34400 nM
O=C1NC2c3c(I)sc(I)c3C(=O)C2O1 (stereo not given),31.6 µM,–
O=C1C=C(Nc2ccc(Cl)cc2Cl)c2ccccc2C1=O,> 100 µM,–
N#CC12C(=O)N3C(=NC(c4ccco4)NC3c3ccco3)C1(C#N)C(c1ccco1)NC1=C2CCCC1 (stereo not given),> 100 µM,–
CC(C)CC(NC(=O)C(C)(CI)Cc1ccccc1)C(=O)Nc1ccccc1 (stereo not given),> 100 µM,–
COc1cc(C2C(Cl)C(=O)N2NC(=O)Cc2ccccc2)cc(Br)c1O (stereo not given),> 100 µM,–
O=c1c2ccccc2sc2c(NCCCNCCO)nc3ccccc3c12,3.8 µM,1830 nM
N#Cc1ccc(C(O)C(F)(F)c2nc3ccccc3o2)cc1 (stereo not given),> 100 µM,–
CCc1ccc(Oc2c(-c3ccc(OCc4ccc(Cl)cc4)cc3O)n[nH]c2C(F)(F)F)cc1,5.02 µM,2050 nM
Cc1nn(CNc2ccccc2C(F)(F)F)c(=S)n1/N=C/c1cccc2cccnc12,> 100 µM,> 100000 nM
Cc1ccc2c(=O)cc(-c3sccc3C)[nH]c2n1,> 100 µM,–
CN(C)C(C1=C(O)C(c2ccccc2)N(c2ccccc2)C1=O)N1CCOCC1 (stereo not given),> 10 µM,–
Clc1c(Cl)[n+](Cc2ccc3ccccc3c2)cn1Cc1ccc2ccccc2c1,4.46 µM,1870 nM
C=C(C)[C@H]1CC[C@@]2(C)C(C1)[C@H](C)CC[C@@H]2O (stereo not given in full),> 100 µM,–
O=C(O)CCNCC(=O)O,> 100 µM,–
CSC12c3cc(C)n(-c4ccc([N+](=O)[O-])cc4)c3CC(C)(C)CN1C(=O)C2Oc1ccccc1 (stereo not given),> 100 µM,–
COc1cc2c(c(OC)c1OC)-c1ccc(OC)c(=O)cc1C(NC(=O)COc1ccccc1)CC2 (stereo not given),1.93 µM,–
CCCCN1C(=O)C2Cc3c([nH]c4ccccc34)C(c3cccc(O)c3)N2C1=O (stereo not given),31.4 µM,–
CC(=O)Nc1ccc(/C=C/C(=O)c2sc(-c3cccnc3)nc2C)cc1,> 100 µM,–
CC1CC(N)=C(C#N)C1(C#N)C#N (stereo not given),> 100 µM,–
C=CCNC(=O)NCCCCC(NC(C)=O)C(=O)NCc1ccccc1 (stereo not given),> 100 µM,–

SMILES,TGI,GI50
CCOC1OC(COC(=O)C(C)(C)C)C(O)CC1n1cc(C)c(=O)[nH]c1=O (stereo not given),> 100 µM,–
O=C(COc1ccc(Cl)c(Cl)c1)Nc1ccc[n+](Cc2ccc(S(=O)(=O)F)c(Cl)c2)c1,> 100 µM,–
CCN(CC)CCCNc1nccc2c(C)c3c(cc12)c1cnccc1n3C,0.465 µM,–
CSC1=N/C(=C\c2ccc(Cl)cc2)C(=O)N1CN1CCCCC1,> 100 µM,–
COc1ccc2c(c1)Cc1c(NCCN(C)C)ccc(C(=O)NCCCN(C)CCCNC(=O)c3ccc(NCCN(C)C)c4c3Nc3ccc(OC)cc3C4)c1N2,0.655 µM,–
Cc1nc([N+](=O)[O-])cn1-c1nc2ccccn2c1[N+](=O)[O-],> 100 µM,–
O=C(C=P(c1ccccc1)(c1ccccc1)c1ccccc1)c1ccc(-c2cccs2)cc1,17.2 µM,–
CCOc1cc(C2CC(c3ccc(NS(=O)(=O)c4cc([N+](=O)[O-])ccc4C)cc3)=NN2S(=O)(=O)c2cc([N+](=O)[O-])ccc2C)ccc1O (stereo not given),> 100 µM,–
CCCCc1ccc(N=C(N)N)cc1,> 100 µM,–
OC(CNc1ccnc2cc(Cl)ccc12)CNc1ccnc2cc(Cl)ccc12,4.18 µM,1930 nM
CSc1ccc2c(cc1=O)[C@@H](NC(=O)c1cccc([N+](=O)[O-])c1)CCc1cc(O)c(O)c(O)c1-2,92.2 µM,–
CC(=O)Oc1ccccc1,> 100 µM,–
COc1c/c(=C2\C=c3ccccc3=N2)[nH]/c1=C\c1[nH]c(C)cc1C,22.6 µM,151 nM
CCOC1CN=C(Nc2cccc3ccccc23)S1 (stereo not given),> 10 µM,–
COc1cc(/C=C2\C(=O)N(C(=O)Cc3ccccc3)N=C2C)cc(OC)c1OC,> 100 µM,–
CNC(=O)c1ccc(N2C(=S)N(c3cnc(C#N)c(C(F)(F)F)c3)C(=O)C23CCC3)cc1F,> 100 µM,> 100000 nM
CNC(=O)OCc1nc(SC)n(C)c1CO,> 100 µM,–
Cc1cc(S(=O)(=O)Nc2n[nH]c(-c3ccc(Cl)cc3)n2)c(SSc2cc(Cl)c(C)cc2S(=O)(=O)Nc2n[nH]c(-c3ccc(Cl)cc3)n2)cc1Cl,84.1 µM,–
CCOC(=O)C(C(=O)OCC)=C1SC(=Nc2ccccc2)C(=Nc2ccccc2)N1c1ccccc1,> 100 µM,–
Cc1cc(NC2=CC(=O)C(=O)c3ccccc32)no1,30.7 µM,–
COc1cccc(/C=N/n2c(Cc3ccccc3)n[nH]c2=O)c1,> 100 µM,–
C=C(CCCCC)CN1CCCC1C(C)=O (stereo not given),> 100 µM,–
Cc1onc(-c2ccccc2)c1C(=O)N/N=C/c1cc(Cl)cc(Cl)c1O,31.5 µM,1950 nM
CN(CCS(=O)(=O)N1C(=O)C2CCCN2C(=O)[C@@H]1Cc1ccccc1)C(=O)OCc1ccccc1 (stereo not given in full),> 100 µM,–
